# Publication PMC4336329 (PLoS ONE, 2015)
# In all, about 310,000 compounds went through this assay and about 14,000 (4.5%) showed an effect of 50% or more. Effects have a minus sign here. Some of the results follow.
# Biological target: human ether-à-go-go-related gene (hERG) potassium channel (human, UniProt Q12809)
# Assay: primary screen, population patch clamp on CHO cells stably expressing hERG
# 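Further: peak tail current of the secondary pulse compared with the same well before compound.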
# human ether-à-go-go-related gene (hERG) potassium channel, sequence (Q12809 whole entry, looked up): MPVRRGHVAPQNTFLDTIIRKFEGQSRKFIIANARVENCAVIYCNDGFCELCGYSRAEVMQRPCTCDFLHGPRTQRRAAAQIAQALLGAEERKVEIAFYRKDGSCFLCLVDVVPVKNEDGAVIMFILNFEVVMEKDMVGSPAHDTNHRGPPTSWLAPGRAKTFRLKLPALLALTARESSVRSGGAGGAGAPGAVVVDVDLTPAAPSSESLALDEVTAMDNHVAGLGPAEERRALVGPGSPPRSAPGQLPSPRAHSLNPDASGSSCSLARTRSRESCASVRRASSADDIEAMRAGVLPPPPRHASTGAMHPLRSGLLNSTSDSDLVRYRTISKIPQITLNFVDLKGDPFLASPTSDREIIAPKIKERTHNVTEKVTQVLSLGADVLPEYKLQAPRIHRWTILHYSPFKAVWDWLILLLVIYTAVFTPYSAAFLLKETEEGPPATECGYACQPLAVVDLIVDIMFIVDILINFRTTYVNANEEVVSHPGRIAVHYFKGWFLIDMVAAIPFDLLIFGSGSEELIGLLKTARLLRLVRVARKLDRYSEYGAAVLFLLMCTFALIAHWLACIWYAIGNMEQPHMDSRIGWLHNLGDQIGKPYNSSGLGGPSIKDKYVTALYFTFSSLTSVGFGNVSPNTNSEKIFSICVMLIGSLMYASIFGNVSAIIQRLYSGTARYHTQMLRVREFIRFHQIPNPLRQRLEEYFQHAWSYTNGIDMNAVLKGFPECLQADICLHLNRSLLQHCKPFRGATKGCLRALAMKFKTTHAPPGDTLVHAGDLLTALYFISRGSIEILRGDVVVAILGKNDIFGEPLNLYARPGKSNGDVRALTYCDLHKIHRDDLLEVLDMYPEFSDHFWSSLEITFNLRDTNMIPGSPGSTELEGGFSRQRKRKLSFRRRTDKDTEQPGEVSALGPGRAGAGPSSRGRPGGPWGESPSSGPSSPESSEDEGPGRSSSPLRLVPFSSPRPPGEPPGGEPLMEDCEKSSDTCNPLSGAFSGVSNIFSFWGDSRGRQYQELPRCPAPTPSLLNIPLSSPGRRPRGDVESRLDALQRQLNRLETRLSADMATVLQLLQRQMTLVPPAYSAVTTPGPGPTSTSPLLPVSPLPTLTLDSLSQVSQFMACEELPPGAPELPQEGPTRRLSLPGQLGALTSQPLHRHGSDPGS
row,SMILES,"hERG current change (%, negative = inhibition) at 10uM [%]"
1,CS(=O)(=O)n1nc(-c2ccco2)nc1N,20.3
2,Nc1cc(C(=O)c2cccs2)ccc1Cl,1.62
3,CCCN(CCC)C(=O)c1cc([N+](=O)[O-])cc2c1-c1ccc([N+](=O)[O-])cc1C2=C(C#N)C#N,-35.3
4,O=C(CN1C(=O)CC(c2ccco2)Sc2ccccc21)NCc1ccc2c(c1)OCO2 (stereo not shown),-37.1
5,COc1cccc(NC(=O)CSc2nc(N)cc(N)n2)c1,5.66
6,O=[N+]([O-])c1ccc(C[n+]2ccc(Cc3ccccc3)cc2)cc1.[Cl-],-34.2
7,O=C(CN1CCc2ccccc21)NN1CC(=O)N(c2ccc(Cl)cc2)CC1=O,8.1
8,O=C(c1ccco1)N1CCN(C2CCCC2)CC1,11.3
9,CCc1nnc(SC(C)C(=O)Nc2nccs2)n1C (stereo not shown),0.584
10,CCN(CC(=O)Nc1ccc(N2CCOCC2)cc1)CC(=O)NC(C)(C)C,-1.96
11,O=c1c2oc3ccccc3c2ncn1Cc1cccc(Cl)c1,14.3
12,Cc1ccccc1NC(=O)NCc1ccc2c(c1)OCO2,11.6
13,CC(=O)Nc1ccc(OS(=O)(=O)c2ccc(Cl)cc2)cc1,-24.5
14,COc1ccc(NC(=O)c2nc(C)c(C3(C)CC(c4ccccc4)=NO3)s2)cc1 (stereo not shown),3.84
15,CSc1ccc(S(=O)(=O)N2CCC(C(=O)Nc3cccnc3)CC2)cc1,-48
16,NS(=O)(=O)c1ccc(CCNC(=O)CNC(=O)c2ccc(Oc3ccccc3)cc2)cc1,11.4
17,Nc1c(-c2ccc(Cl)cc2)cnn1-c1cc(C(F)(F)F)cc(C(F)(F)F)c1,11.2
18,COCCN(CC(=O)Nc1cccc(C)c1C)C(=O)Cc1cccs1,-14.5
19,CCCCn1nc2cc(C(=O)NCc3ccc(OC(F)(F)F)cc3)ccc2c1OC,-3.56
20,COc1cc2c(cc1OC)CN(Cc1ccc(C)s1)CC2,-21.3
21,O=C(CSc1cccc2cccnc12)N/N=C/c1cccc(O)c1,2.95
22,CCCCNC(=S)NC(=O)c1ccccc1Br,0.32
23,COCCCN(C(=O)Cc1coc2cc(C)c(C)cc12)c1c(N)n(Cc2ccccc2)c(=O)[nH]c1=O,-11.7
24,CC(=O)c1cccc(N(CC(=O)NC2CCCCC2)C(=O)c2csnn2)c1,7.98
25,CS(=O)(=O)c1ccc(-c2nnc(NC(=O)c3cccc(N4C(=O)CCC4=O)c3)o2)cc1,6.65
26,C#Cc1cccc(NC(=O)c2ccc3c(c2)C(=O)N(Cc2cccnc2)C3=O)c1,-7.57
27,O=C(Nc1ccc(F)cc1)Nc1ccccc1C(=O)NCCN1CCNC1=O,7.26
28,Cc1nc(CN(C)Cc2nc(Cc3cccc(F)c3)no2)cs1,-17.9

row,SMILES,"hERG current change (%, negative = inhibition) at 10uM [%]"
1,Cc1nn(C)c(C)c1S(=O)(=O)N1CCC(C(=O)Nc2ccc3c(c2)OCCO3)CC1,5.99
2,CSc1nnc(CCNS(=O)(=O)c2ccc(Br)cc2)n1C,2.41
3,Cc1cc(Cl)ccc1OCC(=O)NCCCn1ccnc1,-29.8
4,CN(C(=O)CC1C(=O)NCCN1Cc1cccc(C(F)(F)F)c1)C1CCOCC1 (stereo not shown),11.8
5,CCOC(=O)CSc1nc(C)nc2c1sc1nc(C)c(C(C)=O)c(-c3ccc(OC)cc3)c12,-4.32
6,O=C(CCN1C(=O)C2CC=C(Cl)CC2C1=O)NCc1ccco1 (stereo not shown),-2.13
7,CCCc1cc(=O)oc2cc(OCC(=O)N3CCOCC3)c(Cl)cc12,13.5
8,O=C(CCN1C(=O)c2ccccc2C1=O)Nc1sc2c(c1C(=O)NCC1CCCO1)CCC2 (stereo not shown),-3.78
9,CC1CCN(C(=O)CN(c2ccc(Oc3ccccc3)cc2)S(C)(=O)=O)CC1,-9.11
10,N=c1oc2ccccc2cc1-c1nc(-c2ccccc2)cs1,-2.14
11,COc1ccc(N2CCN(S(=O)(=O)CCNC(=O)c3ccc4c(c3)OCO4)CC2)cc1,7.9
12,Cn1cc(C(=O)c2ccc(Cl)cc2Cl)cc1C(=O)N/N=C(\N)COc1ccc(Cl)cc1Cl,-7.99
13,CCCCn1c(Oc2ccc(C(=O)OC)cc2)nc2c1c(=O)n(C)c(=O)n2C,-6.96
14,O=C1NC(=O)/C(=C\c2cn(Cc3ccccc3F)c3ccccc23)N1,20.4
15,CCCCn1c(N)c(N(CC(C)C)C(=O)C2CC(=O)N(Cc3ccccc3)C2)c(=O)[nH]c1=O (stereo not shown),9.04
16,CC(=O)NC(=S)Nc1ccc(NC(=O)c2cccs2)cc1,11.1
17,Cn1nc(C(=O)Nc2sc3c(c2C#N)CCCC3)ccc1=O,5.37
18,Cc1ccn(CCNC(=O)C2CCC(=O)N(Cc3ccc(Cl)cc3)C2)n1 (stereo not shown),-3.57
19,O=C(CCc1ccccc1)NNC(=O)c1ccccn1,25.4
20,COc1cccc(-c2nn(C)c3sc(C(=O)NCc4ccc(C)cc4)cc23)c1,5.06
21,CCCOC(=O)c1c(NC(=O)/C=C/c2cnn(C)c2C)sc(C(=O)OCC)c1C,4.07
22,C=CCn1c(C)c(/C=C/c2cc[n+](C)cc2)c2ccccc21.[I-],-22.2
23,O=C(O)c1ccc(COc2ccccc2/C=C2\NC(=O)N(Cc3ccccc3F)C2=O)cc1,6.58
24,CC(C)C(NS(=O)(=O)c1c(Cl)cccc1Cl)C(=O)OCC(=O)c1c[nH]c2ccccc12 (stereo not shown),-3.43
25,Cc1ccc2oc(-c3ccco3)cc(=O)c2c1,16.3
26,N#CC1=C(N)Oc2cc(O)ccc2C1c1cccnc1 (stereo not shown),27.4
27,Cc1noc(C)c1COc1ccccc1C(=O)NCCc1ccc(Cl)cc1,-20.8
